Out of some 350,000 compounds screened, about 31,000 (8.9%) were called active. This list was built around the results that the source calls inconclusive (neither active nor inactive); the mix of calls is not that of the screen. The call rests on the fitted dose curve; in most records, active means well fitted inhibition curve with a large enough effect; inconclusive means small, poorly fitted or top-dose-only effect; inactive means no such curve, though single readings can be large or run the other way. A potency beside an inconclusive call is a rough fit, not a confirmed value. Where a structure was tested more than once in an assay, its records may differ in their call.
Each molecule was assayed against Histone-lysine N-methyltransferase EHMT2 (Homo sapiens) (UniProt Q96KQ7) (assay: qHTS Assay for Inhibitors of Histone Lysine Methyltransferase G9a). Conditions: G9a H3K9 monomethylation, AlphaScreen, 2 h; activity, negative = inhibition: at 59 µM (top of the series) unless noted.
UniProt Q96KQ7, sequence (Q96KQ7 whole entry, looked up): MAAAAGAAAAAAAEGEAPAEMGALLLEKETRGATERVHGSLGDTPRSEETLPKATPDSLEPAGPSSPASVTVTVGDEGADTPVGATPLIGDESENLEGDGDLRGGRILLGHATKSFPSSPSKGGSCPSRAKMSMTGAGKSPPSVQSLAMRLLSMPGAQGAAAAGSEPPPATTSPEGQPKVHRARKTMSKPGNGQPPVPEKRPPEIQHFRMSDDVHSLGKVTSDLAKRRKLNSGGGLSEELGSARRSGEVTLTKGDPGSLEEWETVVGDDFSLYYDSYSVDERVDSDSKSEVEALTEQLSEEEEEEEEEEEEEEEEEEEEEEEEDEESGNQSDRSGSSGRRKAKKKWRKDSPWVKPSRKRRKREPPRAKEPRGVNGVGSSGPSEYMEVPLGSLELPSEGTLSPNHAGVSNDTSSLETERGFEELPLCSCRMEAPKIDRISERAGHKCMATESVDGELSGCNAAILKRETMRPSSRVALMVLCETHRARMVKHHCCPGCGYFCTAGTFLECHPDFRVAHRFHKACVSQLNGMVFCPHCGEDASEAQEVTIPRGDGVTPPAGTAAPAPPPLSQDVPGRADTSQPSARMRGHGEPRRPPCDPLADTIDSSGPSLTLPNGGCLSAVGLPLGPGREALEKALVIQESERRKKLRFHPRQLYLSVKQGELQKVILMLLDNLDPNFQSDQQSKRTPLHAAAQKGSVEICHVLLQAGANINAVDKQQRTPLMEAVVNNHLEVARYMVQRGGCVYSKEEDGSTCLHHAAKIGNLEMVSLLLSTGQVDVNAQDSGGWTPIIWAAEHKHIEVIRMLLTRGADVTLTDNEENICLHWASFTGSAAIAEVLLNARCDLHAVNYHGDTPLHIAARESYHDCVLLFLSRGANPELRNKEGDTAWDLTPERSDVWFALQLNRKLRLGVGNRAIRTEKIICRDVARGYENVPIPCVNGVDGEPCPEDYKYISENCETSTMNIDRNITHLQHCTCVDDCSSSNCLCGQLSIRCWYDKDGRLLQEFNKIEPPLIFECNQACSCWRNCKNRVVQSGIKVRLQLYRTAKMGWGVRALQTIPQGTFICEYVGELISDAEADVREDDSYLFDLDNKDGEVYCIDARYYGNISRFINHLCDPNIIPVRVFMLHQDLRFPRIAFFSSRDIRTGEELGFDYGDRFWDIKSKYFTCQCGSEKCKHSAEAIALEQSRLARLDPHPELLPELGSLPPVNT
Procedure, shortened: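 Readings reflect AlphaScreen signal from monomethyl-H3K9 antibody detection. HMT at 20 nM; substrate b-H3K9 500 nM; cofactor SAM 20 uM; 2 h RT reaction; compounds tested as titrations in qHTS with 15 min preincubation.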
Further: nearly all actives have a fitted effect of over 75% in size.
On the % scale 0 is the no-effect control and ±100 the full control effect; potency means the concentration at half of the fitted maximal effect; tags describe the fitted curve by direction and shape.

SMILES | Potency | activity, negative = inhibition
O=C(O)CCSc1nc2ccc(Br)cc2[nH]1 | inconclusive: 20 µM [inhibitor, partial curve, poor fit] | 
Cc1c(NC(=O)CCC(=O)N2CCCCC2)c(=O)n(-c2ccccc2)n1C | inconclusive: 39.8 µM [inhibitor, single point] | 
N#CCCN1CCN(C2=NC(=O)C(=C3CCCCC3)S2)CC1 | inactive | 
Cc1ccc(NC(=S)N2CCC(N(C)CC3CCCO3)CC2)cc1C (configuration not stated) | inconclusive: 56.2 µM [inhibitor, partial curve] | 
O=C(NCCOC12CC3CC(CC(C3)C1)C2)c1cccc(Br)c1 | inactive | 
CCOC(=O)c1c(C)[nH]c(C(=O)N/N=C/c2cc([N+](=O)[O-])ccc2O)c1C | inconclusive: 79.4 µM [inhibitor, single point] | 
CC(C)OP(=O)(OC(C)C)C(Nc1ccccc1)c1cccnc1 (configuration not stated) | inactive | 
N=c1c2c(ncn1CCN1CCOCC1)Oc1ccc3ccccc3c1C2c1ccccc1 (configuration not stated) | inconclusive: 79.4 µM [inhibitor, single point] | 
CCn1c2ccccc2c2nnc(SCCN3CCCCC3)nc21 | inconclusive: 89.1 µM [inhibitor, single point] | 
O=C(NNc1ccc(Cl)cc1)c1c(F)cccc1Cl | active: 44.7 µM | 
COCCN(C(=O)COC(=O)CNC(=O)c1cccs1)c1c(N)n(Cc2ccccc2)c(=O)[nH]c1=O | active: 11.2 µM | 
O=C(CSc1nccn1-c1ccccc1)Nc1nc2ccccc2s1 | inactive | 
CN(CC(=O)Nc1ccccc1[N+](=O)[O-])Cc1ccc(Br)cc1 | inconclusive: 39.8 µM [inhibitor, single point] | 
COCCCNC(=O)COc1cc2c(c3oc(=O)c(C)c(C)c13)CCC(C)(C)O2 | inactive | 
CCOc1ccc(C(=O)N2CCN(CCc3ccccc3)CC2)cc1OCC | inconclusive: 89.1 µM [inhibitor, partial curve, poor fit] | 
COc1cc(-c2noc(-c3ccc(NCc4cccnc4)c([N+](=O)[O-])c3)n2)cc(OC)c1OC | inconclusive: 31.6 µM [inhibitor, partial curve, poor fit] | 
S=c1[nH]nc(CSCc2ccccc2Cl)n1C1CCCCC1 | active: 3.55 µM | 
CC(C)OC(=O)Cn1nc(C(c2ccccc2)c2ccccc2)oc1=O | inactive | 
COc1ccc(N2CCN(CCNC(=O)Nc3cc(Cl)ccc3OC)CC2)cc1 | inconclusive: 39.8 µM [inhibitor, full curve, poor fit] | 
CCOc1ccc(-c2n[nH]c(C)c2-c2ccccn2)c(O)c1 | inconclusive: 22.4 µM [inhibitor, full curve, poor fit] | 
COc1ccc2nc(NC(=O)CN3CCOCC3)sc2c1 | inconclusive: 89.1 µM [inhibitor, single point] | 
O=C(Cc1ccccc1[N+](=O)[O-])NCc1ccncc1 | inactive | 
Cn1ccc2cc(S(=O)(=O)N3CCCN(C(=O)Nc4ccccc4Br)CC3)ccc21 | inactive | 
COc1ccc(-c2noc(CN(C)CCC3CCCCO3)n2)cc1 (configuration not stated) | inactive | 
O=C(NC(=S)Nc1cccc(Cl)c1N1CCCC1)c1ccc(-c2cccc([N+](=O)[O-])c2)o1 | inconclusive: 39.8 µM [inhibitor, full curve, poor fit] | 
COC(=O)c1ccccc1NC(=O)c1cccs1 | inactive | 

SMILES | Potency | activity, negative = inhibition
Cc1cc(Cn2nnnc2-c2ccncc2)cc(C)c1O | active: 35.5 µM | 
Cc1nn(C)c(C)c1S(=O)(=O)N1CCCC(C(=O)N2CCN(c3ccc(Cl)cc3)CC2)C1 (configuration not stated) | inconclusive: 2 µM [inhibitor, partial curve, poor fit] | 
O=C(COC(=O)c1ccccc1O)Nc1cccc(S(=O)(=O)N2CCCC2)c1 | inactive | 
O=C1/C(=C\c2ccco2)CCC/C1=C\c1ccco1 | inconclusive: 1.78 µM [inhibitor, full curve, poor fit] | 
Cc1ccc(OC(=O)c2ccccc2P(=O)(O)O)cc1 | inconclusive: 89.1 µM [inhibitor, single point] | 
O=C(O)C1CCN(c2ccc(S(=O)(=O)N3CCOCC3)cc2[N+](=O)[O-])CC1 | inconclusive: 8.91 µM [inhibitor, single point] | 
O=C(CCCn1c(=S)[nH]c2cc3c(cc2c1=O)OCO3)N1CCN(c2ncccn2)CC1 | inconclusive: 4.47 µM [inhibitor, single point] | 
COc1ccccc1/C=C/C=N/n1c(-c2cc(-c3ccccc3)n[nH]2)n[nH]c1=S | inconclusive: 3.55 µM [inhibitor, full curve] | 
COc1ccc(NC(=O)/C(C#N)=C/C=C/c2ccco2)cc1 | inconclusive: 15.8 µM [inhibitor, partial curve] | 
COc1ccc(OC)c(N/C(C)=C/C(=O)c2ccc(C)o2)c1 |  | inconclusive: -72.1% [inhibitor]
S=c1[nH]nc(-c2ccncc2)n1/N=C/c1cn(-c2ccccc2)nc1-c1ccccc1 | inconclusive: 0.447 µM [inhibitor, partial curve, poor fit] | 
Nc1ccc(C(=O)N2CCCC2)cc1 | inactive | 
COc1ccc(OCC(N)=O)cc1 | inactive | 
O=C(Nc1ccc(N2CCCCC2)cc1)c1ccccc1 |  | inconclusive: -98.7% [inhibitor]
CCOc1ccccc1NC(=O)c1c(NC(=O)c2ccccc2C)sc2c1CCC(C)C2 (configuration not stated) | active: 14.1 µM | 
Cc1ccc(OCCn2cc(C(=S)N3CCCC3)c3ccccc32)cc1C | inconclusive: 25.1 µM [inhibitor, single point] | 
CCn1c(/C=C/Nc2ccccc2)[n+](CC)c2ccc(Cl)cc21 | active: 44.7 µM | 
CC1Sc2ccc(S(=O)(=O)N3CCC(C(=O)N(C)Cc4ccco4)CC3)cc2NC1=O (configuration not stated) | inactive | 
Cc1cc(-c2ccc(Cl)cc2)c(C#N)c(N)n1 | inactive | 
CC1=C(C)CC2C(=O)N(c3cccc4ccccc34)C(=O)C2C1 (configuration not stated) | active: 7.94 µM | 
O=C(NCC(=O)N(Cc1ccco1)C(C(=O)NC1CCCCC1)c1cccnc1)c1ccco1 (configuration not stated) | inconclusive: 0.447 µM [inhibitor, full curve, poor fit] | 
CCOc1ccc(CCNC(=O)C2CCCN(c3ncnc4c3nc3n4CCCCC3)C2)cc1 (configuration not stated) | inactive | 
Cc1ccn2c(Nc3ccc4c(c3)OCCO4)c(-c3ccc(Cl)s3)nc2c1 | inconclusive: 0.794 µM [inhibitor, partial curve, poor fit] | 
O=C1c2ccccc2C(=O)C2OC12 (configuration not stated) | active: 8.91 µM | 
CCOC(=O)c1ccc(S(=O)(=O)NNC(=O)COc2ccc(C)cc2)cc1 | inactive | 
C=CCCC(=O)Nc1nc(C)c(-c2csc(Nc3ccc(Cl)cc3Cl)n2)s1 | active: 7.08 µM | 

SMILES | Potency | activity, negative = inhibition
CCN1CCN(C(=O)Cn2nc(-c3ccc(Cl)cc3)ccc2=O)CC1 | inactive | 
CCCN(CCC)Cc1c(C(=O)OCC)nnn1-c1nonc1N | inconclusive: 89.1 µM [inhibitor, single point] | 
CC(C)(C)[C@H](NC(=O)c1ccc(N)c(Cl)c1)C(=O)N1CCC[C@H]1C(=O)N[C@H](C#N)Cc1nn[nH]n1 | inconclusive: 7.08 µM [inhibitor, single point] | 
O=C(COC(=O)c1ccc[nH]c1=O)c1ccc(Cl)s1 | inactive | 
O=C(CN1CCCCC1)Nc1nc(-c2ccc(Cl)cc2)cs1 | inconclusive: 50.1 µM [inhibitor, partial curve, poor fit] | 
Cc1ccc(C(=O)N(Cc2ccc(N(C)C)cc2)Cc2ccco2)cc1 | active: 14.1 µM | 
O=C(Nc1cccc([N+](=O)[O-])c1)Nn1cnnc1 | inactive | 
CC1CCN(Cc2c(O)ccc3c2O/C(=C\c2ccco2)C3=O)CC1 | active: 5.62 µM | 
N#C/C(=C/c1ccc(N2CCOCC2)c([N+](=O)[O-])c1)C(N)=O | inconclusive: 56.2 µM [inhibitor, partial curve] | 
O=C(CSc1nc2ccccc2[nH]1)Nc1ccc(F)c(F)c1 | inactive | 
Cc1ccc(/C=C/C(=O)c2cc(Br)ccc2OC(=O)c2ccco2)cc1 | inactive | 
O=C(c1ccc(OCCN2CCCCC2)cc1)c1c(-c2ccc(O)cc2)sc2cc(O)ccc12 | active: 22.4 µM | inactive: -40.3% [at 12.7 µM]
Cc1ccc(C)c(C(=O)OCC(=O)Nc2cccc(S(=O)(=O)NC3=NCCCCC3)c2)c1 | inconclusive: 89.1 µM [inhibitor, partial curve, poor fit] | 
CCOc1cc(/C=C/C(=O)O)ccc1OCCOc1ccccc1 | inactive | 
CC(=O)Nc1ccc(SCCCC(=O)c2ccccc2)cc1 | active: 44.7 µM | 
Cc1cccc(C)c1NC(=O)N1CC(C)OC(C)C1 (configuration not stated) | inactive | 
CCN(CC)c1nn2c(=O)c(C(=O)NCc3ccc(F)cc3)cnc2s1 | inactive | 
COc1ccc(Nc2nc3[nH]c(=O)cc(O)c3s2)cc1 | inconclusive: 50.1 µM [inhibitor, partial curve] | 
CCCCn1c(=O)c(CCC(=O)O)nc2ccccc21 | inconclusive: 44.7 µM [inhibitor, partial curve, poor fit] | 
O=C(/C=C/c1ccc(-c2ccccc2[N+](=O)[O-])o1)c1ccco1 | active: 14.1 µM | 
CSc1nsc2nc(=O)c(/C=C3\C(C)=Nc4ccc(C)cc43)c(N)n12 | inconclusive: 39.8 µM [inhibitor, single point] | 
O=C(O)CCn1c(=O)sc2ccccc21 |  | inactive: 12.2% [at 2.33 µM]
CCc1ccccc1NC1=NCC(=O)N1C1CCCCC1 | inconclusive: 89.1 µM [inhibitor, partial curve, poor fit] | 
COc1cccc(Cn2cc(N)cn2)c1 | inconclusive: 17.8 µM [inhibitor, partial curve, poor fit] | 
